Measurements: article PMC5342353
Where two headings read alike, the source gives them in different places. Results are given in words; binding and its absence hold for the method and conditions named. For some assays here: In cells and extracts the contact can be indirect. Some binding calls cover weakened binding; strength is not graded here. For some assays here: Where a sequence is shown, tags or fusion partners need not be part of it. Each block holds one substance with its values, some of them ahead of it.

Sequences of proteins named here, by UniProt entry; tags and fusion partners are left off. A change or cut given only in a name is not applied to a line headed by its entry.
UniProt Q13426: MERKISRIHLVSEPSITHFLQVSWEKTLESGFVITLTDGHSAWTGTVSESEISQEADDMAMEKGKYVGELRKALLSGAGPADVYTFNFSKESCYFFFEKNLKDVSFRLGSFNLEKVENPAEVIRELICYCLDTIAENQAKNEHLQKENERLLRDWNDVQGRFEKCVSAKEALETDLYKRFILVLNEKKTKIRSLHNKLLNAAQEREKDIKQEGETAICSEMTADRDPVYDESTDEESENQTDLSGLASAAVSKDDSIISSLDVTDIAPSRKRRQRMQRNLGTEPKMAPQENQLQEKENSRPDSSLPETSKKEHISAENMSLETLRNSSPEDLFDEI
UniProt P18887: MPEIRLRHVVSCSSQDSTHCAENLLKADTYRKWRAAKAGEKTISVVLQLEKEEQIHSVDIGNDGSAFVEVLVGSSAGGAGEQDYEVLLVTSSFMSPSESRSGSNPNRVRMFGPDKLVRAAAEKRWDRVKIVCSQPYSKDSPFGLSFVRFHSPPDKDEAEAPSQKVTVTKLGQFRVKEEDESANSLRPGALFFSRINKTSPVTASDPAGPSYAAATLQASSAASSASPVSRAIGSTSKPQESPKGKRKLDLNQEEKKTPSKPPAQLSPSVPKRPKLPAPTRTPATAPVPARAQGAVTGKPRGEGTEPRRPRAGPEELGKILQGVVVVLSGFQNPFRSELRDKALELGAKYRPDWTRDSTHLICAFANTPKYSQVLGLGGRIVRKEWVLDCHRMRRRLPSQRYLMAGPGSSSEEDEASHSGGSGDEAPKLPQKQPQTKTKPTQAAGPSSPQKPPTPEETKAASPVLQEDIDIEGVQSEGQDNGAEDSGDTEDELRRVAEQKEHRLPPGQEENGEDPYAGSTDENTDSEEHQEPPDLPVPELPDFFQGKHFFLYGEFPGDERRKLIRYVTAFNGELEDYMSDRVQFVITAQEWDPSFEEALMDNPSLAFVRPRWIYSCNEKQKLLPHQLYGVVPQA
UniProt P09874: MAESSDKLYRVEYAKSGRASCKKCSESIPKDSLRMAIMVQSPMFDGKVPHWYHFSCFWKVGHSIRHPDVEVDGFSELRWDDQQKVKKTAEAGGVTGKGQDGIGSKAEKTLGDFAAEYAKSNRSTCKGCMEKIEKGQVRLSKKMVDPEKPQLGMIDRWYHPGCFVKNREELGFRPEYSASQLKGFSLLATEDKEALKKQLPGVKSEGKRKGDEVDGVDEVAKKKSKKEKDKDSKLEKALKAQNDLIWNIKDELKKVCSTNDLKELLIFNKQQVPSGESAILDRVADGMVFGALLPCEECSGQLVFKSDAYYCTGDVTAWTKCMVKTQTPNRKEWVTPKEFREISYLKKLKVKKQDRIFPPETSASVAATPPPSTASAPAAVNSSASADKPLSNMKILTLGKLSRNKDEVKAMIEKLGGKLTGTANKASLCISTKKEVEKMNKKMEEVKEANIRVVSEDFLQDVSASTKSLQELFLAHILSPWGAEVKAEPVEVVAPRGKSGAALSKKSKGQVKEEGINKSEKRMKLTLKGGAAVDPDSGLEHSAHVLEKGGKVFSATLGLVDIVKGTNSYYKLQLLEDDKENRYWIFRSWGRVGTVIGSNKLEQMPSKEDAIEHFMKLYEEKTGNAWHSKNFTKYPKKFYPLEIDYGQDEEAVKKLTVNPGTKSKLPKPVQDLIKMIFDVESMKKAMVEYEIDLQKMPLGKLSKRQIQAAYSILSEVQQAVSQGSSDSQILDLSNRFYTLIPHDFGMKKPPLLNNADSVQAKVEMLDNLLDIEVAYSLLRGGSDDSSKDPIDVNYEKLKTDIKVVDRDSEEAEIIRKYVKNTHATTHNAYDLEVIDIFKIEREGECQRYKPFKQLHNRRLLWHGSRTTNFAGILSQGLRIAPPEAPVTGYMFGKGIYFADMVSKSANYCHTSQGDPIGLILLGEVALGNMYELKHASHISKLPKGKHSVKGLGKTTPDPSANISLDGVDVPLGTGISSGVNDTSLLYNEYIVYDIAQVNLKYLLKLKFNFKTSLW
UniProt P78527: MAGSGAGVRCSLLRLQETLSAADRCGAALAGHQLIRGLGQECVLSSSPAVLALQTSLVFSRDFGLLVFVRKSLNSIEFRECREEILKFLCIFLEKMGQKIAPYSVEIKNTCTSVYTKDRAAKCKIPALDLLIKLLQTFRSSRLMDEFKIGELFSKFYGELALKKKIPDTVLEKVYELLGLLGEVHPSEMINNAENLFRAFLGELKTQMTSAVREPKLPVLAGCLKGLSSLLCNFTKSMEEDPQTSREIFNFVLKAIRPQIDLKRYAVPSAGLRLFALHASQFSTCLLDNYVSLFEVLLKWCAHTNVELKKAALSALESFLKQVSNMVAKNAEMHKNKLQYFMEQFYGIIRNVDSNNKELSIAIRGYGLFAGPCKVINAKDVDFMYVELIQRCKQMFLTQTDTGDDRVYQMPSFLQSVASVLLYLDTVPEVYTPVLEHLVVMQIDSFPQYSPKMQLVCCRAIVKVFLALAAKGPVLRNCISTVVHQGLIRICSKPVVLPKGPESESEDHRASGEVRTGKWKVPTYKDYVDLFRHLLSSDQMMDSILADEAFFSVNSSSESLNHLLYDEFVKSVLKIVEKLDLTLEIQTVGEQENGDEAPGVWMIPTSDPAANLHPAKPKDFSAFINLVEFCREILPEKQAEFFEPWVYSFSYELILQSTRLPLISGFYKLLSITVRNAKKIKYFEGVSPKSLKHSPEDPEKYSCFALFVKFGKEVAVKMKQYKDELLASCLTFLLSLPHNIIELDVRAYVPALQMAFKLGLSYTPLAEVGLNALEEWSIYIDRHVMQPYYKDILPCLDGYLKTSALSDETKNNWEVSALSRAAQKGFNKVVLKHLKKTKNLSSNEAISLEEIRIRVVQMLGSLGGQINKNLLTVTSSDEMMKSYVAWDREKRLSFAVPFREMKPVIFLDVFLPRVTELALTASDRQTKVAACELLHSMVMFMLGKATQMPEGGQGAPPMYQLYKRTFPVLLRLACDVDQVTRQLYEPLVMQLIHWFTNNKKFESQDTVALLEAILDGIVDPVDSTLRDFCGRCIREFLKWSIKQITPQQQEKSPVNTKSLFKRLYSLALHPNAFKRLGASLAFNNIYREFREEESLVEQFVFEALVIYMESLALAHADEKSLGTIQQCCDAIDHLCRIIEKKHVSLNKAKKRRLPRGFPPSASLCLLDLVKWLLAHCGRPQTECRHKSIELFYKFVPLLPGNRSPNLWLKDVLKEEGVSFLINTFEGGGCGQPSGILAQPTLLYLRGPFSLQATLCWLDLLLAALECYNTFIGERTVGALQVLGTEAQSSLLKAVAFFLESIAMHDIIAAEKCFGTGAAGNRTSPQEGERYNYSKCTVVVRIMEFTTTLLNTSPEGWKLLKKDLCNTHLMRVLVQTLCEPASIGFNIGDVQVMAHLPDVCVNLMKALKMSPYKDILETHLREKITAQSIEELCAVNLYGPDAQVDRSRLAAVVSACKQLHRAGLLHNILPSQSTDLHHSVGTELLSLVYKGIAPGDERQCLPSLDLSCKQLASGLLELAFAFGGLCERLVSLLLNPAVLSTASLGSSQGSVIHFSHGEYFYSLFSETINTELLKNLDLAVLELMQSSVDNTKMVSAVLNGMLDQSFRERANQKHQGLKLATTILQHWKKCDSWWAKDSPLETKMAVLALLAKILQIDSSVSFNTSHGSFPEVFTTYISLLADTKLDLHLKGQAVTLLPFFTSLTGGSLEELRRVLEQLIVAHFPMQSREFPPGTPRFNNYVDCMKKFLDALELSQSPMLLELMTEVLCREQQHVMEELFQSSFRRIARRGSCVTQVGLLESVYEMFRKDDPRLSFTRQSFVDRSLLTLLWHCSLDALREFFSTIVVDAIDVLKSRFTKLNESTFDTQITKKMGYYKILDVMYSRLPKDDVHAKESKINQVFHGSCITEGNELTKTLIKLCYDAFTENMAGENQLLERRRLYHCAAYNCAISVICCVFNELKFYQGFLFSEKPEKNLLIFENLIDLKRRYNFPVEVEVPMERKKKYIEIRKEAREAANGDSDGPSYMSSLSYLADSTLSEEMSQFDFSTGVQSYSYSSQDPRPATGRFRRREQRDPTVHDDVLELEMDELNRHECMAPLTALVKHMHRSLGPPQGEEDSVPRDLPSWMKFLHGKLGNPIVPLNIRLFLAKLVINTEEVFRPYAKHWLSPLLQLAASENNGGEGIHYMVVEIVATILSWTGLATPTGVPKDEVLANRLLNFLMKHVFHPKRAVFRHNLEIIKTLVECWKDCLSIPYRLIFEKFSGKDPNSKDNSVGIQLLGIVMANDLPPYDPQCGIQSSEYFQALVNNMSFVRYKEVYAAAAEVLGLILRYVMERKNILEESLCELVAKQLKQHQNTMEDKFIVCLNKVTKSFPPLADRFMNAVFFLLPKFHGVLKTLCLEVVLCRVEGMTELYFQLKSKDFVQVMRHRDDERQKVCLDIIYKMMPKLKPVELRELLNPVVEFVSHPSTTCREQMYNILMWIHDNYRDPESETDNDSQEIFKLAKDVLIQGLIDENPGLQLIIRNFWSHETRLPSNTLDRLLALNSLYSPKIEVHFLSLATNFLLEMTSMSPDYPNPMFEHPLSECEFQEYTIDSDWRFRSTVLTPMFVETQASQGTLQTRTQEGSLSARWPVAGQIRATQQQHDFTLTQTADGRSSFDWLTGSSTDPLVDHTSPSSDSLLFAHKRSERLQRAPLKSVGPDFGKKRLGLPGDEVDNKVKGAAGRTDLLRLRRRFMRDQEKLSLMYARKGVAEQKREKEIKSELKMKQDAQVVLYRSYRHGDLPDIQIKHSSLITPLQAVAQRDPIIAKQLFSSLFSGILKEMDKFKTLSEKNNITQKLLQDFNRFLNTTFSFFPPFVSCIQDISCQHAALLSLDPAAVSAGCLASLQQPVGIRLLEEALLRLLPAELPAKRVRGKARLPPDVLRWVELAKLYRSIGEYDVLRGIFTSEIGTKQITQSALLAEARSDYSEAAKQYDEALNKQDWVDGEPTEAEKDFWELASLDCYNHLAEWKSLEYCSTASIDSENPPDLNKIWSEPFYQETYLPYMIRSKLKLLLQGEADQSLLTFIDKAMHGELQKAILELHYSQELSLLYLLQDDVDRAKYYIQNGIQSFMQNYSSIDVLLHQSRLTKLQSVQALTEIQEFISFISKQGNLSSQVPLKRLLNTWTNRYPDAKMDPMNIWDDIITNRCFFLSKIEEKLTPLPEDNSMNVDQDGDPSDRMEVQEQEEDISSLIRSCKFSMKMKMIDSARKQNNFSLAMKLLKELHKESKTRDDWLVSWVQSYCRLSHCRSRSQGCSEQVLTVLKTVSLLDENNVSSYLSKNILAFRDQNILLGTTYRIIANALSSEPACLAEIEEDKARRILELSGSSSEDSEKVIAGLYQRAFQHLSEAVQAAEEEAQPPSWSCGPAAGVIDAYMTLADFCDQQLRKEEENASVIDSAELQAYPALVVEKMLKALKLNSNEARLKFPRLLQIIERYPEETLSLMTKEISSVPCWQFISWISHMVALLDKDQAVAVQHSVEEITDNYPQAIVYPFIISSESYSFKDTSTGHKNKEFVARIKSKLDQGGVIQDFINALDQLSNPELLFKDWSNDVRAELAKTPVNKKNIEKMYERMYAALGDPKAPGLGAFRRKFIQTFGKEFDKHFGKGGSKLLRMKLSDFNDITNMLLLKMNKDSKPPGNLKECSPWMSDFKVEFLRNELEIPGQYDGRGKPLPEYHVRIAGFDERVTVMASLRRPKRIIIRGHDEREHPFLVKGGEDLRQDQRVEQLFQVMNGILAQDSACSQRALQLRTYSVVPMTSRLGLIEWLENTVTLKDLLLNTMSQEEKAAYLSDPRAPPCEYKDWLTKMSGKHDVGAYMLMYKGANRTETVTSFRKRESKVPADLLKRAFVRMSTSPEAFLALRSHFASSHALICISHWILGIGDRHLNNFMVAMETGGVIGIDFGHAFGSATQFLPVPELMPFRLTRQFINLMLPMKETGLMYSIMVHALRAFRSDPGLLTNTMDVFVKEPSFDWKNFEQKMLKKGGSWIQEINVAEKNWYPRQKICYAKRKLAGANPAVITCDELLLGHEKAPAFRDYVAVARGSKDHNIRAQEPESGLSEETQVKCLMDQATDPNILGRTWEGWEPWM

Tests used:
[1] = biological target: FLAG-tagged N-terminal deletion mutant APE1 (NΔ33) (human) (UniProt P27695); test: co-IP; FLAG M2 antibody agarose, 3 h at 4°C, from chromatin or nuclear lysates of HEK293 (also U2OS) cells after degradation of nucleic acids; washed with TBS; immunoblot; cells with or without irradiation (3 Gy) or bleomycin
[2] = biological target: NEIL1, endogenous (human (endogenous in HEK293 and U2OS)) (UniProt Q96FI4); test: co-IP; endogenous co-IP with NEIL1 antibody, with or without irradiation
[3] = biological target: SAF-A-FLAG (WT) (human) (UniProt Q00839); test: co-IP; FLAG M2 antibody agarose, 3 h at 4°C, from chromatin or nuclear lysates of HEK293 (also U2OS) cells after degradation of nucleic acids; washed with TBS; immunoblot; cells with or without irradiation (3 Gy) or bleomycin
[4] = biological target: NEIL1 C-terminal domain (CTD) deletion mutant (N311)-FLAG (human) (UniProt Q96FI4); test: as above
[5] = biological target: FLAG-NEIL1 (human) (UniProt Q96FI4); test: as above
[6] = biological target: FLAG-NEIL2 (human) (UniProt Q969S2); test: as above
[7] = biological target: SAF-A-FLAG (WT) (human) (UniProt Q00839); test: proximity ligation; Duolink PLA in fixed HEK293 cells, with or without 3 Gy X-rays; NEIL1 (rabbit) and FLAG (mouse) or Ku antibodies
[8] = biological target: FLAG-tagged non-phosphorylable S59A mutant of SAF-A (human) (UniProt Q00839); test: as above
[9] = biological target: FLAG-(WT)-APE1 (human) (UniProt P27695); test: co-IP; FLAG M2 antibody agarose, 3 h at 4°C, from chromatin or nuclear lysates of HEK293 (also U2OS) cells after degradation of nucleic acids; washed with TBS; immunoblot; cells with or without irradiation (3 Gy) or bleomycin
[10] = biological target: His-tagged WT SAF-A (human) (UniProt Q00839)
[11] = biological target: His-tagged SAF-A S59D mutant (human) (UniProt Q00839); test: pull-down; His-tagged WT or S59D SAF-A bound to Ni-NTA beads, mixed with full-length NEIL1 or Ku in TBS, 4 h at 4°C, five washes, immunoblot; both purified
[12] = biological target: His-tagged WT SAF-A (human) (UniProt Q00839); test: as above

Substance: NEIL1, endogenous (from UniProt Q96FI4 1-390) (enzyme)
binding [7]: binds
binding [8]: binds

Substance: XRCC4, endogenous (from UniProt Q13426 1-336)
binding [5]: no binding
binding [9]: no binding

Substance: Ku (Ku70/Ku80 heterodimer), endogenous (from UniProt P12956 1-609; P13010 1-732) (complex)
binding [6]: binds

Substance: XRCC1, endogenous (from UniProt P18887 1-633)
binding [2]: binds

Substance: untagged full-length NEIL1 (from UniProt Q96FI4 1-390) (enzyme)
binding [11]: binds
binding [12]: binds

Results, then the substance that gave them:

binding [1]: no binding
Substance: PARP1, endogenous (from UniProt P09874 1-1014) (enzyme)

binding [2]: binds
binding [3]: binds
binding [4]: no binding
binding [5]: binds
binding [6]: binds
Substance: DNA-PKcs, endogenous (from UniProt P78527 1-4128) (enzyme)

binding [2]: binds
binding [5]: binds
Substance: PNKP, endogenous (from UniProt Q96T60 1-521) (enzyme)

binding [10]: binds
Substance: NEIL1 C-terminal peptide (residues 312-349) (from UniProt Q96FI4 312-349)
